# Data: PubChem BioAssay AID1030 (National Center for Advancing Translational Sciences (NCATS), 2008)
# About 16,000 (7.3%) of roughly 220,000 compounds were called active. Inconclusive means that the source gave no clear call. Such entries were picked first, then a sample of the others. The call rests on the fitted dose curve; in most records, active means well fitted inhibition curve with a large enough effect (not every such curve was filed as active); inconclusive means small, poorly fitted or top-dose-only effect, or another doubt; inactive means no such curve, though single readings can be large or run the other way. Potencies of inconclusive entries are left out as doubtful fits.
# Molecular target: Aldehyde dehydrogenase 1A1 (Homo sapiens) (UniProt P00352)
# Assay: qHTS Assay for Inhibitors of Aldehyde Dehydrogenase 1 (ALDH1A1);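 on activity, negative = inhibition: plate controls were no enzyme wells and a reference inhibitor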
# Settings: Purified ALDH1A1, NADH fluorescence, propionaldehyde substrate; series mostly up to 75.3 µM; activity, negative = inhibition: at the top concentration
# Potency means the concentration at half of the fitted maximal effect; tags describe the fitted curve by direction and shape.
# UniProt P00352, sequence (P00352 whole entry, looked up): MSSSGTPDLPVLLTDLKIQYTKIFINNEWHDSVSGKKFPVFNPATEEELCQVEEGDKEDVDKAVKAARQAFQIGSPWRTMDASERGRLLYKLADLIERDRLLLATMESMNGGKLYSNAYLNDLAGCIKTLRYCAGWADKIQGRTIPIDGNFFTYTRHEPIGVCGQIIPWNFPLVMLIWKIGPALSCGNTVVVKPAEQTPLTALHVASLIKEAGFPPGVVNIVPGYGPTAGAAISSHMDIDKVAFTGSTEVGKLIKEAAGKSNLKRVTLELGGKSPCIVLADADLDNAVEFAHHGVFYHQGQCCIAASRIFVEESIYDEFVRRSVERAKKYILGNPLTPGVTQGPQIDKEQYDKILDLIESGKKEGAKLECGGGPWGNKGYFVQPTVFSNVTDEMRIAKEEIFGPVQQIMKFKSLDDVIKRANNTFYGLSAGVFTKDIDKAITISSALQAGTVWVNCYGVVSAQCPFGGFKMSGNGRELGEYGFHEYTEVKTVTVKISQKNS
Structure (SMILES),"activity, negative = inhibition",Potency
O=C(Cc1ccccc1)N1CCN(CC2CC3C=CC2C3)CC1 (stereo not given),inactive: -14.6%,–
Cc1cccc(C(=O)O)c1O,–,"inconclusive [inhibitor, partial curve]"
C=CCn1c(O)c(/C=N/N2CCCCC2c2cccnc2)c(=O)[nH]c1=S (stereo not given),inactive: -13.4%,–
CCCc1[nH]nc2c1C1(C(=O)N(Cc3ccccc3)c3ccccc31)C(C(=O)OC)=C(N)O2 (stereo not given),inactive: -12.9%,–
COc1c(C(C)(C)C)cc([N+](=O)[O-])c(C)c1[N+](=O)[O-],–,"inconclusive [inhibitor, single point]"
Cc1cc([N+](=O)[O-])ccc1N,–,"inconclusive [inhibitor, single point]"
NCCNCCNCCNCCN,–,active: 31.6 µM
Oc1cccc2cccnc12,–,inactive
COc1ccc2c(c1O)-c1cccc3c1C(C2)N(C)CC3 (stereo not given),–,"inconclusive [inhibitor, single point]"
O=c1[nH]c(=S)n(C2CC2)c(O)c1/C=N/Nc1ccccc1,–,active: 3.16 µM
COc1cc(CN2CCN(C(=O)COc3ccccc3)CC2)cc(OC)c1OC,–,"inconclusive [inhibitor, single point]"
O=c1[nH]c(=O)n(-c2ccc(F)cc2)c(O)c1C=Nc1ccccc1N1CCCC1,–,"inconclusive [inhibitor, partial curve, poor fit]"
Cc1ccsc1C(=O)C1CCCN(Cc2ccc(O)cc2)C1 (stereo not given),inactive: -0.25%,–
CCCC(C)C(=O)NC1CCSC1=O (stereo not given),inactive: 5.71%,–
CCOC(=O)Cc1c(C)c2c(C)[nH]nc2oc1=O,–,"inconclusive [inhibitor, single point]"
C[N+](C)(C)CCc1ccc(O)cc1,–,"inconclusive [inhibitor, partial curve]"
O=C(c1ccc(Cl)cc1)C1CCCN(Cc2ccc3nonc3c2)C1 (stereo not given),–,"inconclusive [inhibitor, partial curve]"
CCCCCCCCCc1ccc(OCCOCCOCCOCCOCCOCCOCCOCCOCCO)cc1,–,"inconclusive [inhibitor, single point]"
O=C(C(=O)N1CCOCC1)c1cn(Cc2ccccc2Cl)c2ccccc12,–,"inconclusive [inhibitor, single point]"
CC(Cc1ccccc1)NC(=O)NC(C)Cc1ccccc1 (stereo not given),inactive: 2.82%,–
N#C/C(=C\c1ccc(O)cc1)C(=O)O,–,"inconclusive [inhibitor, single point]"
CCOC(=O)C1CCN(/C=C2/C(=O)NC(=O)N(Cc3ccco3)C2=O)CC1,–,active: 3.55 µM
CCOC(=O)c1c(C)n(CC(O)CN2CCOCC2)c2cc(Br)c(OC)cc12 (stereo not given),–,"inconclusive [inhibitor, single point]"
C=CCN1CCC23c4c5ccc(O)c4O[C@H]2C(=O)CC[C@@]3(O)C1C5 (stereo not given in full),–,inactive
Cn1c(O)c(/C=C/C=Nc2ccccc2)c(=O)n(C)c1=S,–,active: 12.6 µM

Structure (SMILES),"activity, negative = inhibition",Potency
C[N+](C)(C)CC#CCOC(=O)Nc1cccc(Cl)c1,–,active: 7.94 µM
C=C1C(=O)O[C@@H]2C[C@@H](C)[C@@H]3C=CC(=O)[C@@]3(C)[C@@H](O)[C@H]12,–,"inconclusive [inhibitor, partial curve]"
O=C(CNC(=O)c1ccc(Br)cc1)Nc1ccc(Br)cc1C(=O)c1ccccc1,–,"inconclusive [inhibitor, partial curve]"
Cn1c(O)c(C(=O)c2ccccc2)c(=O)n(C)c1=O,inactive: -5.64%,–
O=C1NC(=O)C(CCc2ccncc2)(CCc2ccncc2)C(=O)N1CCc1ccc(F)cc1,inactive: 14.4%,–
CNC(=O)ON(C(=O)NC)C1N(C)C(=S)SC1(C)C (stereo not given),–,"inconclusive [inhibitor, partial curve]"
CC(=NCCCO)c1c(O)n(Cc2ccccc2)c(=O)[nH]c1=O,–,"inconclusive [inhibitor, single point]"
Cc1ccccc1[N+](=O)[O-],inactive: 0.176%,–
CC(=O)C(Sc1ncnc2c1nnn2-c1ccc(F)cc1)C(=O)N(C)C (stereo not given),–,active: 2.51 µM
CN1C[C@@H](NS(=O)(=O)N(C)C)C[C@@H]2c3cccc4c3c(cn4C)C[C@H]21,–,"inconclusive [inhibitor, single point]"
Cc1ccc2nc(-c3ccncc3)cc(C(=O)N3CCC4(CC3)OCCO4)c2c1,–,"inconclusive [inhibitor, partial curve]"
O=C(O)c1cccc2nc3ccccc3nc12,–,"inconclusive [inhibitor, partial curve]"
Nc1c(C(=O)NCCN2CCOCC2)c2nc3ccccc3nc2n1Cc1ccco1,–,"inconclusive [inhibitor, partial curve]"
O=C(N/N=C/c1c(O)n(CCc2ccccc2)c(=O)[nH]c1=O)c1ccncc1,–,"inconclusive [inhibitor, partial curve]"
CC(C)(C)c1ccc(C(=O)NC(=S)Nn2cnnc2)cc1,–,active: 9.46 µM
CC1(C(O)(C#CCN2CCCCC2)c2ccccc2)CCCC1 (stereo not given),–,"inconclusive [inhibitor, single point]"
OC[C@@H]1CCCN2CCCC[C@@H]12,inactive: 2.2%,–
O=C1NC(=S)N(C2CC2)C(=O)/C1=C/c1ccc2c(c1)CCN2CCCCl,–,active: 0.891 µM
COc1cc(CNCCc2ccc3c(c2)OCO3)cc(OC)c1OC,–,"inconclusive [inhibitor, single point]"
C[N+]1([O-])[C@H]2CC[C@H]1CC(OC(=O)[C@@H](CO)c1ccccc1)C2 (stereo not given in full),inactive: 11.8% [at 13.5 µM],–
CNC(=O)Oc1ccc2ncccc2c1,–,"inconclusive [inhibitor, single point]"
CC(=O)Nc1ccccc1OP1(=O)COc2ccccc2OC1,inactive: 2.51%,–
Cc1cc(/C=C2/C(=O)NC(=O)N(Cc3ccco3)C2=O)c(C)n1-c1ccccc1,–,active: 8.91 µM
CCCCN1C(=O)/C(=C/c2ccc(N(C)C)cc2)C(=O)N(Cc2ccco2)C1=O,–,active: 0.708 µM
CCOC(=O)c1c(NC(=O)C(c2ccccc2)c2ccccc2)sc2c1C1CCN2CC1,–,"inconclusive [inhibitor, partial curve]"
